Test results reported in the supplement of paper PMC11417369.
± gives the standard deviation of the averaged measurements. This is one part of the list.

These sequences were tested on PfAP2-G AP2 domain (GST-tagged) (assay: gcPBM binding intensity (ln(normalized median fluorescence intensity)); higher = stronger DNA binding).
How it was run: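 Probes on an Agilent 4 × 180k array were primer-extended, double-stranded and 36 bp long, taken from intergenic genomic regions, with negative controls added. GST-tagged P. falciparum DNA-binding domains from E. coli, about 25 μg on average, were applied to the array for 1 h in 1× PBS containing 1% milk, 0.2 mg/ml BSA, 0.5% salmon testes DNA and 0.03% Triton X-100. Binding intensity, obtained after Alexa488 anti-GST antibody detection and a 488 nm scan, is the highest Masliner-normalised natural-log median intensity across replicate spots of either probe orientation.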

Sequence	gcPBM binding intensity (ln)
TTATAATATAGCAATTATTAAATAGGATCAAATGAA [CACACA_negctrl_site632]	9.92 ± 0.071
TTGGTGGATAAATTTACACACAATAACTTTCGTTCA [CACACA_site6358]	10.1 ± 0.17
AGAAGAAAAGTAAAAAGTACATTATTCATGGCCTAT [XGTACX_site5601]	11.1 ± 0.57
TATTTGTAAATTATTTGGGTGTGTAGGGGATATTCT [XGTACX_negctrl_site204]	10.13 ± 0.071
CGTTCATATTATTATAGTACATATTATTATAGTTTT [XGTACX_site1550]	10.9 ± 0.45
TTTTTTTTTTTATTTGCATGCGGTGTTCATAATATT [TGCATGCA_site199]	10.02 ± 0.092
AGAGCTGTTTTTTATGCATGTAGTTTAGAAAATACA [TGCATGCA_site257]	9.96 ± 0.2
TTTATCTTATTTTTATGTACTTATTTTATAAAAAAA [XGTACX_site7730]	11.4 ± 1
TTTTTCCTAACATATTATATACTTGAATATTTATTA [CACACA_negctrl_site156]	9.74 ± 0.12
AAACAAATATTTATCACAATGTCATTTTGTTAACAT [GTGCAC_negctrl_site171]	9.835 ± 0.035
ATATAAGAAATAAAGAAAAATGTGTTTTTTTTTTTT [XGTACX_negctrl_site396]	9.51 ± 0.18
AAAAAAAAAAAAAACTGTACCAAAAAGAATATATAC [XGTACX_site8345]	10.9 ± 0.51
TTTAATTTTATATAGAGTACAAAAAAATAGAAAGAT [XGTACX_site3870]	11.3 ± 0.77
ATATATATATATATATGTACATAAATATTTTAAAAT [XGTACX_site4980]	11.3 ± 0.75
TTTGAGATAAAAGACTGTACTTAGAATGTATAAAAA [XGTACX_site203]	11.3 ± 0.79
ACAATAAAAATAAAAAGTACAAATAAAAAAAATAAA [XGTACX_site6718]	11.4 ± 0.9
TTGTTTCTACAATTTAATAAAATACGTTTTCAAAAA [XGTACX_negctrl_site377]	9.95 ± 0.27
TACTCCTTAAATATATGTAAAGGAAGAAAAAAAAAA [XGTACX_negctrl_site306]	10 ± 0.22
ATATATATATATATATGTACACATATACGCTTTTTC [XGTACX_site3838]	11.4 ± 0.98
AATATATGTTTAATTTCACACACAAATATACATTTT [CACACA_site9385]	10.04 ± 0.049
AAGTAAAATAAGTATACACACATAAATATATATATA [CACACA_site685]	9.95 ± 0.16
TTTTCTTGTAAATTACGTACGAATGTGTAGAGAAAT [XGTACX_site1339]	11.2 ± 0.65
ACTTGTAAGAAACACACACACACACCCATATATATA [CACACA_site796]	10.2 ± 0.14
TCTATAAAGGAATATACACACATATATATATATATA [CACACA_site410]	9.9 ± 0.32
